# From PMC4336329 (PLoS ONE, 2015)
# The campaign covered roughly 310,000 compounds. About 2,200 (0.71%) showed an effect of 50% or more. Effects have a minus sign here. The list shows a part of the results.
# Molecular target: human ether-à-go-go-related gene (hERG) potassium channel (human, UniProt Q12809)
# Assay: primary screen, population patch clamp on CHO cells stably expressing hERG
# human ether-à-go-go-related gene (hERG) potassium channel, sequence (Q12809 whole entry, looked up): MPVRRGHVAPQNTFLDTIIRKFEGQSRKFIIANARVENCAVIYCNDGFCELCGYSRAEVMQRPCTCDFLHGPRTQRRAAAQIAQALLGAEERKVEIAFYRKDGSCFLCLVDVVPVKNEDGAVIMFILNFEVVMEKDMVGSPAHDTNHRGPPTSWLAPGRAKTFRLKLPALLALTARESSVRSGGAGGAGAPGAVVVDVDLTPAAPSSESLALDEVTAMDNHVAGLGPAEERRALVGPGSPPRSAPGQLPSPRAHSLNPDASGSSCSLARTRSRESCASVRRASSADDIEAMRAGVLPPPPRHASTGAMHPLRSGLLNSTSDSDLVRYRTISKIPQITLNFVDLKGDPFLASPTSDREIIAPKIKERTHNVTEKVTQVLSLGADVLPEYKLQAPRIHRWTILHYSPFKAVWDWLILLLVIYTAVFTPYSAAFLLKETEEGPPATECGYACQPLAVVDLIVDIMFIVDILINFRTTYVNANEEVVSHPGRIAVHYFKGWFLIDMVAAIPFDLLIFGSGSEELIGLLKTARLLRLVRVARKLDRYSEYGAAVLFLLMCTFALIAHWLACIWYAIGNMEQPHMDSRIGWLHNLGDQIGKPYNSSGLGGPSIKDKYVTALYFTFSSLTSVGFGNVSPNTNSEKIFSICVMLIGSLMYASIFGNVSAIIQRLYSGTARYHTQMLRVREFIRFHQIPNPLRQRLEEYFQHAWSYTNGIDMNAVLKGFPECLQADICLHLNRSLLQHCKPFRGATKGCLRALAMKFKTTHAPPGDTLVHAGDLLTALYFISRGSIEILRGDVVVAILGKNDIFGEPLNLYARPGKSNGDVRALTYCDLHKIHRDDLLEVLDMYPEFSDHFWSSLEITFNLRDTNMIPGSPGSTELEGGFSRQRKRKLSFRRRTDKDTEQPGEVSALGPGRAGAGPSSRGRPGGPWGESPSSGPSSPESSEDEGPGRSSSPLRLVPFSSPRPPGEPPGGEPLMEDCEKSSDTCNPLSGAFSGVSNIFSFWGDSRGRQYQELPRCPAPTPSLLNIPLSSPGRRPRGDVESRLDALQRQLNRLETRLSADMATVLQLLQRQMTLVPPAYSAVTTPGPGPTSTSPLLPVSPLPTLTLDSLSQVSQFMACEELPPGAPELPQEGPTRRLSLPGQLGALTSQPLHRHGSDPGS
row,SMILES,"hERG current change (%, negative = inhibition) at 1uM"
1,CCC1=Nc2cc(C(=O)O)ccc2Sc2ccccc21,14%
2,NNC(=O)CNC(=O)c1ccc(F)cc1,14.9%
3,O=C(/C=C\c1ccco1)Nc1nc(-c2ccc3ccccc3c2)cs1,8.41%
4,Cc1ccc(Cl)c(NC(=S)N(CCCN2CCOCC2)Cc2ccco2)c1,2.83%
5,CCCc1cc(=O)[nH]c(SCC(=O)N2CCN(c3ccc(F)cc3)CC2)n1,-3.04%
6,Cc1ccc(S(=O)(=O)N[C@H](C(=O)OCC(=O)N2N=C(c3ccc(Cl)cc3)CC2c2ccco2)C(C)C)cc1 (stereo partly drawn),1.02%
7,Cc1ccc(C)c(OCCC(=O)OCC(=O)NCCc2ccc(S(N)(=O)=O)cc2)c1,-20.3%
8,CC1(C)CC(=NO)CC(C)(C)N1,12%
9,CC(C)=N/N=C1/NC(=O)C(CC(=O)Nc2cc(Cl)ccc2C)S1 (stereo not drawn),7.24%
10,N#Cc1ccccc1OCC(=O)OCC(=O)c1c[nH]c2ccccc12,7.92%
11,CCn1c(=O)c2cc(C(=O)NCc3cccs3)sc2c2ccccc21,15.2%
12,CCOC(=O)C1Sc2[nH]c(=O)sc2C(c2ccc(Cl)cc2)C1C(=O)OCC (stereo not drawn),4.11%
13,O=C1C2C3C=CC([C@@H]2C(=O)N1C1CC1)[C@H]1C(=O)N(C2CC2)C(=O)C31 (stereo partly drawn),10.3%
14,COc1ccc(NC(=S)N2CCN(C(c3ccccc3)c3ccccc3)CC2)c(OC)c1,6.25%
15,Cc1ccccc1-n1c(SCC(=O)NC(N)=O)nc2sc(-c3ccccc3)cc2c1=O,11.6%
16,COc1ccc(OCCSc2ncn[nH]2)cc1,-2.28%
17,COc1ccc(C23CC4CC(CC(C4)C2)C3)cc1C(=O)NCCN(C)C.Cl,15.1%
18,O=C(O)CCC(=O)N1N=C(c2ccccc2)CC1c1cccs1 (stereo not drawn),6.8%
19,O=C(NCc1ccccc1Cl)c1ccccc1CCc1ccccc1,2.9%
20,Cc1cc(C)cc(-n2ccnc2SCC(=O)c2c(N)n(C3CC3)c(=O)[nH]c2=O)c1,5.04%
21,CCOC(=O)Nc1ccc2c(c1)N(C(=O)CCN1CCOCC1)c1ccccc1S2.Cl,19.1%
22,Cc1ccc(SCC(=O)Nc2cc([N+](=O)[O-])ccc2O)cc1,4.97%

row,SMILES,"hERG current change (%, negative = inhibition) at 1uM"
1,CCC1=C(OC(=O)N(CC)CC)N2C(=O)OC(=NCc3ccccc3)[C@]2(C)[C@H]2C1=CC[C@H]1C(=O)N(CC(=O)OC)C(=O)[C@H]12,15.5%
2,O=C(Nc1ccccc1)Nc1cc(Cl)cc(Cl)c1,14.3%
3,Cn1cnnc1SC/C(O)=C(\C#N)c1nc2ccccc2[nH]1,11.9%
4,CC(C)N(C(=O)COC(=O)c1ccc(O)cc1)C(C)C,2.03%
5,CCOc1ccc(NC(=O)CN(C)C(=O)C2CCCC2)cc1OCC,16.1%
6,O=P(Nc1ccccc1)(Nc1ccccc1)Oc1ccccc1,12.8%
7,Cc1oc(-c2ccc(Cl)cc2)nc1CS(=O)CC(=O)NCCCN1CCCC(C)C1 (stereo not drawn),16.3%
8,COc1cc(OC)cc(C(=O)Nc2ccc(-c3nc4ccccc4o3)c(O)c2)c1,4.93%
9,N#CC(C#N)=C1C=CC=CN1/C(=C\c1ccco1)C(=O)c1ccc(Br)cc1,-4.87%
10,COc1ccccc1OCCCCCCN1CCN(C)CC1.O=C(O)C(=O)O,12.5%
11,Cc1ccc(NC(=O)c2cccc(S(=O)(=O)N3CCCc4ccccc43)c2)nc1,3.74%
12,O=C(Oc1ccc(OC(=O)N2CCCCC2)cc1)c1ccccc1,4.04%
13,CCN(Cc1ccc(OC)c(F)c1)C(=O)C1CCCO1 (stereo not drawn),18.7%
14,COc1nc(N2CCOCC2)nc(C)c1[N+](=O)[O-],5.25%
15,C/C(=N\Nc1ccccc1Cl)c1ccc(-n2ccnc2)cc1,7.67%
16,CN=C1SC(CC(=O)Nc2sc3c(c2C#N)CCCC3)C(=O)N1C (stereo not drawn),20.4%
17,COC(=O)C1CCCCN1C(=O)c1ccc2oc(C(C)C)nc2c1 (stereo not drawn),11.6%
18,COc1cccc(C(=O)N2CCN(Cc3ccccn3)CC2)c1.O=C(O)C(=O)O,18%
19,Cc1ccnc(NC(=O)CCC(=O)N(CC(=O)NC(C)(C)C)c2ccc3c(c2)OCCO3)c1,13.7%
20,O=C(O)c1c(Cl)cccc1Cl,16.6%
21,CCc1nnc(NC(=O)C23CC4CC(CC(C4)C2)C3)s1,14.8%
22,CC(Sc1nnnn1-c1ccccc1)C(=O)NC1CCCC1 (stereo not drawn),3.59%

row,SMILES,"hERG current change (%, negative = inhibition) at 1uM"
1,CC1=CSC2=NC(C(F)(F)F)(C(F)(F)F)NC(=O)N12,9.38%
2,CCOc1ccc(NC(=O)CN(C)C(=O)c2ccc(OCC3CCCO3)cc2)cc1OCC (stereo not drawn),2.54%
3,Cc1ccc(-n2ncc3ccccc3c2=O)cc1Cl,2.9%
4,Cc1cc(O)c(-c2n[nH]c3c2C(c2cccc(O)c2)N(Cc2cccnc2)C3=O)cc1Cl (stereo not drawn),14.9%
5,O=C(NCCc1ccccc1)c1n[nH]c2ccccc12,10.5%
6,O=C1c2ccccc2C(Nc2ccccc2)N1c1cccnc1 (stereo not drawn),-6.69%
7,COC(=O)CSc1[nH]c2cc(C)ccc2c1[N+](=O)[O-],17.9%
8,COc1cc2c(cc1NC(=O)CSc1nc3ccccc3[nH]1)oc1ccccc12,22.5%
9,Cc1nc(C(=O)N2CCc3c([nH]c4ccccc34)C2c2ccccn2)cs1 (stereo not drawn),14.7%
10,COCCn1c(SC(C(=O)Nc2cc(C)ccc2OC)c2ccccc2)nnc1-c1ccc(Cl)cc1 (stereo not drawn),4.16%
11,C#CC[N+]1(CC#Cc2ccccc2)CCOCC1.[I-],8.62%
12,Cn1c(=O)c2c(nc(NCCNC(=O)c3ccco3)n2Cc2ccccc2)n(C)c1=O,6.97%
13,COc1ccc(S(=O)(=O)N2CCOCC2)cc1NC(=O)c1cccs1,8.63%
14,O=C(CN1CCN(c2ccccc2F)CC1)N1N=CCC1c1ccccc1 (stereo not drawn),7.86%
15,CCN(CC)S(=O)(=O)c1cc(NC(=O)CSc2nc3c(cc2C#N)C(=O)CC(C)(C)C3)ccc1C,11.5%
16,Cc1ccc(OCc2cc(C(=O)NC(C)Cc3cccc(C)n3)no2)cn1 (stereo not drawn),17.6%
17,CC(C)=NOC(=O)c1ccc(-c2ccccc2)cc1,13.4%
18,O=C(NCc1ccccc1)/C(=N\O)c1ccccc1,10.3%
19,Cc1ccc(NS(=O)(=O)c2ccc(-c3coc(C)n3)cc2)c(C)c1,11.9%
20,O=C(NCCN1C(=O)S/C(=C\c2ccccc2Cl)C1=O)C1=COCCO1,-1.44%
21,Br.CC(=O)Nc1nc(C)c(-c2csc(Nc3ccc(O)cc3)n2)s1,-6.54%
22,Cc1cccc(NC(=O)Cn2cnc3c(cnn3-c3ccc(F)cc3)c2=O)c1C,17.4%

row,SMILES,"hERG current change (%, negative = inhibition) at 1uM"
1,O=c1c2ccccc2c(-c2n[nH]c(=S)o2)nn1Cc1ccccc1,21.9%
2,CC(C)(C)OC(=O)Nc1ccc([C@@H](NC(=O)OC(C)(C)C)C(=O)OC(C)(C)C)cc1,12.7%
3,Cc1ccc(OCC(=O)Nc2nnc(S(=O)(=O)N3CCCCCC3)s2)cc1C,14.7%
4,c1c2c(cc3sc(N4CCCCC4)nc13)OCCO2,8.59%
5,COc1ccc(N2CCN(C(=O)Cn3nnc(-c4ccc(OC)c(OC)c4)n3)CC2)cc1,9.91%
6,Cc1cccc(OCC(=O)NCc2nc(-c3ccccc3)no2)c1,17.3%
7,Cc1ccc(OCC(O)Cn2c(=N)n(Cc3ccccc3)c3ccccc32)cc1.Cl (stereo not drawn),-61%
8,CNC(=S)N/N=C/c1cccc(OCc2ccccc2F)c1,15.4%
9,COCCN(C(=O)CSc1nncn1-c1ccccc1)c1c(N)n(Cc2ccccc2)c(=O)[nH]c1=O,13.6%
10,O=C(NCc1ccc2c(c1)OCO2)c1ccc2c(c1)OCO2,9.66%
11,Cc1cc(C(=O)CN2C(=O)C(=O)N(Cc3ccccc3)C2=O)c(C)n1-c1ccccc1F,12.3%
12,CCc1ccc(CN2CCCC(C(=O)Nc3ccccc3-c3ccc(OC)cc3)C2)o1 (stereo not drawn),5.8%
13,CCCCCCn1c(CN2CCN(C)CC2)nc2c1c(=O)n(C)c(=O)n2C,-41.8%
14,O=C(COc1ccc(/C=N/NS(=O)(=O)c2ccccc2)cc1)N1CCOCC1,10.6%
15,O=c1ccc(-c2ccc(S(=O)(=O)Nc3cccc(Br)c3)o2)n[nH]1,14.2%
16,CCOC(=O)C1CCN(C(=O)CN2C(=O)CSc3ccc(S(=O)(=O)N4CCOCC4)cc32)CC1,2.95%
17,Cc1ccc(CNc2nc3ccccc3n2C)o1,11%
18,Cc1ccc(C2(c3noc(CN4CCC(C(=O)N5CCOCC5)CC4)n3)CCCC2)cc1,7.32%
19,CN(C)c1ccc(NC(=O)c2cccc([N+](=O)[O-])c2)c2ccccc12,6.21%
20,COC(=O)C[n+]1cccc2ccccc21.[Cl-],18.8%
21,CC1CCc2c(sc(NS(=O)(=O)c3ccccc3)c2C(=O)OC(C)C)C1 (stereo not drawn),9.63%
